Laboratory results: PubChem BioAssay AID757 (NMMLSC, 2007)
About 520 (0.27%) of roughly 190,000 compounds were called active. Inconclusive results, whose numbers are uncertain, are shown with a selection of clear calls.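 The calls were made as follows: active = GTP binding activity at least 20 points away from the 100% control level, either lower or higher; inconclusive = compound flagged as likely green fluorescent, judged across all proteins; inactive = the rest.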

Target: Ras-related C3 botulinum toxin substrate 1 (Homo sapiens) (UniProt P63000)
Test: wildtype Rac1 GTP binding modulators, primary screen, biochemical, GST-Rac1 beads, flow cytometry, multiplex (AID 757)
Settings: fluorescent GTP binding, at 10 µM, actives lie on both sides, 0 = cold GTP competed, 100 = untreated

| Structure (SMILES) | GTP binding activity (% of control) |
| --- | --- |
| COc1ccc(NC(=O)CSc2ncccc2C(=O)OC(C)C)cc1OC | inconclusive: 108% |
| CCN(CC)S(=O)(=O)c1ccc(OC)c(NC(=O)c2ccc3c(c2)OCO3)c1 | inconclusive: 89% |
| CCOC(=O)C1=C(C)NC(=NC)SC1c1ccccc1 (stereo not given) | inconclusive: 97% |
| COc1ccc(-c2noc(CCC(=O)NCCCN3CCC(C)CC3)n2)cc1 | inconclusive: 105% |
| OCC1(CCOc2ccccc2)CCN(C2Cc3ccccc3C2)CC1 | inactive: 97% |
| CCc1nnc(NC(=O)CSc2nnc(-c3ccoc3C)n2-c2ccc(C)cc2)s1 | inconclusive: 90% |
| Cn1c(=O)n(Cc2ccc(F)cc2)c(=O)c2c1nc1n2CCN1Cc1ccco1 | active: 75% |
| CC(C)(C)c1ccc(OCCNC(=O)Cc2ccc(F)cc2)cc1 | inactive: 101% |
| CC1CCCCC1NC(=O)COC(=O)CNC(=O)c1cccc(F)c1 (stereo not given) | inactive: 92% |
| CC(=O)OC(C)CS(=O)(=O)c1ccccc1 (stereo not given) | inactive: 94% |
| Cc1cc(C(=O)NCC23CC4CC(CC(C4)C2)C3)c(C)o1 | inactive: 100% |
| CCN=c1scc(-c2ccc3c(c2)NC(=O)CO3)n1N=C1CCCC1 | inconclusive: 104% |
| CCn1cc(C(=O)OCC(=O)NCc2ccccc2Cl)c(=O)c2ccc(C)nc21 | inactive: 92% |
| CCOc1ccc(-c2nnc(-c3cccs3)o2)cc1OCC | inconclusive: 92% |
| CCOC(=O)N1CCN(C(c2cccc(OC)c2)c2sc3nc(C)nn3c2O)CC1 (stereo not given) | inconclusive: 101% |
| CCN1CCN(C(c2cc(OC)c(OC)c(OC)c2)c2nnnn2C(C)C)CC1 (stereo not given) | inconclusive: 104% |
| Cc1noc(NS(=O)(=O)c2ccc(NC(=O)CSc3n[nH]c(-c4ccccc4)n3)cc2)c1C | inconclusive: 90% |
| COc1ccc(CCNC(=O)Nc2ccc([N+](=O)[O-])cc2)cc1OC | inactive: 100% |
| CCOC(=O)C(CC)(CCC(=O)O)c1csc(N)n1 (stereo not given) | inconclusive: 106% |
| Cc1ccc(S(=O)(=O)N(CC(=O)N(C)C)c2cccc([N+](=O)[O-])c2)cc1 | inconclusive: 99% |
| O=C(NNC(=S)Nc1ccccc1)c1cccc(S(=O)(=O)N2CCOCC2)c1 | inactive: 96% |
| C=CCOc1ccc(CN(C)CC(=O)Nc2ccc3c(c2)CCC3)cc1 | inconclusive: 92% |
| CCC/C(O)=C1\C(=O)CCCC1=NCCc1c(C)[nH]c2ccc(OC)cc12 | inactive: 100% |
| Oc1c(Cl)cc(Cl)cc1C=Nc1ccccc1N1CCCC1 | inconclusive: 90% |

| Structure (SMILES) | GTP binding activity (% of control) |
| --- | --- |
| CC(Oc1ccc(F)cc1)C(O)CCN(C)C (stereo not given) | inactive: 103% |
| Cc1cc(Br)ccc1OCCn1ccnc1 | inactive: 105% |
| O=C(Cn1nc(-c2ccccc2)c2ccccc2c1=O)Nc1cccc(O)c1 | inactive: 97% |
| Cc1ccc(Nc2c(F)c(F)c(F)c(F)c2C(=O)O)cc1 | active: 141% [activator] |
| CC(=O)N1CCCN(Cc2cn(-c3cc(C)ccc3C)nc2-c2ccccc2)CC1 | inactive: 102% |
| CC(C)(C)c1ccccc1NC(=O)Cn1c(=O)cnc2ccccc21 | inconclusive: 106% |
| Cn1c(-c2ccccc2)cnc1N | inconclusive: 106% |
| Cc1cc(C(=O)NNC(=O)C2CCCC2)c(C)o1 | inactive: 100% |
| CCCC1=C(C(=O)OCC)C(c2cccs2)C(C#N)=C(N)O1 (stereo not given) | inconclusive: 98% |
| Nc1nc(N)c2sc3nc4c(cc3c2n1)CCC4 | inconclusive: 84% |
| C=CCn1c(=O)n2ncnc2c2c3c(sc21)CCCC3 | inconclusive: 90% |
| O=C(CSc1nc(-c2ccccc2)nc2c1Cc1ccccc1O2)Nc1ccc(C(=O)O)cc1 | inconclusive: 93% |
| Cc1nc2ccccc2c(=O)n1CCN1CCOCC1 | inconclusive: 108% |
| CC(C)NC(=O)C(OC(=O)c1ccccc1)C(OC(=O)c1ccccc1)C(=O)O (stereo not given) | inconclusive: 108% |
| Cn1c(O)c(C2=c3ccccc3=NC2=O)[nH]c1=S | active: 79% |
| C=CCn1c(C)cc(C(=O)CN2C(=O)c3ccccc3C2=O)c1C | inconclusive: 105% |
| Cc1ccc(COC(=O)c2ccc3c(c2)C(=O)N(CCCN2CCOCC2)C3=O)cc1 | inconclusive: 91% |
| COc1ccc2nc(C)cc(SCC(=O)N/N=C/c3ccc(O)cc3O)c2c1 | inconclusive: 84% |
| CC(=O)c1sc(N/N=C/c2cccc(O)c2)nc1C | inconclusive: 80% |
| CC(c1nnnn1C(C)(C)C)N(Cc1cccnc1)Cc1ccccc1Cl (stereo not given) | inconclusive: 95% |
| Cc1[nH]c2ccccc2c1SCC(=O)N1CCCCCC1 | inactive: 101% |
| CC(OC(=O)c1cc2c(ccc3ccccc32)oc1=O)c1nc2ccccc2s1 (stereo not given) | inconclusive: 82% |
| CC(=O)N1CCN=C1SCc1ccc(Br)cc1 | inconclusive: 110% |
| CC(C)n1cc(/C=C(\C#N)S(=O)(=O)c2ccccc2)c2ccccc21 | inconclusive: 105% |

| Structure (SMILES) | GTP binding activity (% of control) |
| --- | --- |
| Cc1cc(C)n2nc(SCN3C(=O)c4ccccc4C3=O)nc2n1 | inconclusive: 106% |
| Cn1c(=O)n(Cc2ccccc2F)c(=O)c2c1nc1n2CCCN1CCc1ccccc1 | inconclusive: 96% |
| Cc1nn(CCc2nn[nH]n2)c2nc(-c3ccc(C4CCCCC4)cc3)cc(C(F)(F)F)c12 | active: 79% |
| CCc1ccccc1NC(=S)N(CCN(C)C)Cc1cccs1 | inactive: 99% |
| Clc1ccccc1Nc1nc(-c2cccnc2)cs1 | inactive: 97% |
| NC(=S)N/N=C/c1ccc(-c2cc(Cl)cc(Cl)c2)o1 | inconclusive: 86% |
| C1COCCNCCOCCOCCOCCN1 | inactive: 106% |
| CCCn1c(SCC(=O)N2CCCC(C)C2)nnc1-c1ccccn1 (stereo not given) | inactive: 93% |
| CCC(=O)NC(=S)Nc1cccc(NC(=O)c2ccco2)c1 | inconclusive: 92% |
| O=C(CN1CCN(c2ccc(F)cc2)CC1)Nc1cccc(C(F)(F)F)c1 | inconclusive: 100% |
| COc1ccc(CN2C(=O)NC3(CCCC3)C2=O)cc1F | inconclusive: 98% |
| CCN(CC)S(=O)(=O)c1ccc(NC(=S)NC(=O)CC(C)C)cc1 | inconclusive: 102% |
| CCCN1C(=O)/C(=C/c2ccc(C)o2)SC1=Nc1ccc(OCC)cc1 | inconclusive: 106% |
| O=C(Nc1ccc([N+](=O)[O-])cc1Br)c1cccnc1 | inconclusive: 100% |
| CCOC(=O)c1sc(N)c(C(N)=O)c1C | inconclusive: 93% |
| CCCCC1(CC)C(=O)NC(=O)NC1=Nc1ccc(OC)cc1 (stereo not given) | inconclusive: 108% |
| CSCC[C@H](NC(=O)Nc1ccc(C)cc1C)C(=O)O | inconclusive: 103% |
| O=C(CN1C(=O)CCC1=O)NCC12CC3CC(CC(C3)C1)C2 | inconclusive: 90% |
| COc1c(C(=O)Nc2c(C)n(C)n(-c3ccccc3)c2=O)ccc2ccccc12 | inconclusive: 111% |
| Cc1ccc(CN2C(=O)CCC2C(=O)NC(C)C)cc1 (stereo not given) | inconclusive: 101% |
| CCCCCn1nc(C(=O)OCC(=O)c2c(N)n(C)c(=O)n(C)c2=O)c2ccccc2c1=O | inconclusive: 75% |
| O=C(CCN1C(=O)COc2ccccc21)NCc1cccs1 | inconclusive: 95% |
| COc1cc(S(=O)(=O)Nc2ncccc2C)c(OC)cc1Cl | inconclusive: 104% |
| COC(=O)c1ccc2c(c1)N(Cc1nc(-c3cccc(C)c3)oc1C)C(=O)C1CCCN21 (stereo not given) | inactive: 100% |

| Structure (SMILES) | GTP binding activity (% of control) |
| --- | --- |
| COc1c(C)cc(Br)cc1C(=O)Nc1cccc(-c2nc3ncccc3o2)c1 | inconclusive: 81% |
| C#CCN1C(=O)C(O)(CC(=O)c2cc(OC)ccc2OC)c2ccccc21 (stereo not given) | inconclusive: 104% |
| O=C(CSc1ncnc2sc(-c3ccccc3)cc12)NC1CCS(=O)(=O)C1 (stereo not given) | inactive: 93% |
| CCCCn1nnc(NC(=O)c2ccc(-c3cccc([N+](=O)[O-])c3)o2)n1 | inconclusive: 88% |
| O=[N+]([O-])c1ccc(S(=O)(=O)NCCN2CCOCC2)cc1 | inconclusive: 104% |
| Cc1cc(C(=O)NNC(=O)CCCCC(=O)NNC(=O)c2cc(C)[nH]n2)n[nH]1 | inconclusive: 102% |
| CC1CN(C(=O)Cc2ccc(-c3ccccc3)cc2)CC(C)O1 (stereo not given) | inactive: 93% |
| COC(=O)c1cc(OC)c(OC)cc1NC(=O)c1ccc(C)o1 | inconclusive: 87% |
| CCCCNC(=O)CSc1nnc(-c2c[nH]c3ccccc23)n1CC1CCCO1 (stereo not given) | inactive: 106% |
| COC(=O)c1sccc1NC(=S)N1C(C)CCCC1C (stereo not given) | inactive: 93% |
| CCOC(=O)CN1C=C(c2ccc3ccccc3n2)C(C[N+](=O)[O-])c2ccccc21 (stereo not given) | inconclusive: 113% |
| CCOC(=O)c1sc(NCc2ccco2)c(-c2nc3ccccc3s2)c1N | inconclusive: 116% |
| CCOC(=O)N1CCN(Cc2nc(Cc3cccc(C(F)(F)F)c3)no2)CC1 | inactive: 99% |
| CCC(Sc1nc(=O)cc(N)n1CCc1ccccc1)C(=O)Nc1cc(C)on1 (stereo not given) | inconclusive: 104% |
| Cc1cc(C(C)(C)C)oc1C(=O)NCCCNC(=O)c1oc(C(C)(C)C)cc1C | inconclusive: 90% |
| O=c1[nH]c2cc3c(cc2cc1CN(Cc1cccnc1)C(=S)NCc1ccco1)OCCO3 | inconclusive: 98% |
| CC(=O)N1c2ccccc2C(=O)OC1c1cccnc1 (stereo not given) | inconclusive: 105% |
| CC1CN(CCCOc2ccccc2-c2ccccc2)CC(C)O1 (stereo not given) | inactive: 94% |
| CCN1C(=O)/C(=C/c2cnn(CC)c2C)SC1=S | inconclusive: 106% |
| O=C(c1cccc(OC(F)F)c1)N1CCN(c2ncccn2)CC1 | inconclusive: 104% |
| Cn1ccs/c1=N\C(=O)Nc1ccccc1 | inactive: 101% |
| O=C(O)CCCCCNS(=O)(=O)c1cccc2c1C(=O)c1ccccc1C2=O | inconclusive: 77% |
| O=C(COc1ccc(F)cc1)N1CCC(c2ccccc2)C1 (stereo not given) | inconclusive: 107% |
